Results: the supplement of paper PMC11417369
± gives the standard deviation of the averaged measurements. The list shows a part of the results.

System: PfAP2-EXP AP2 domain (GST-tagged)
Test: gcPBM binding intensity (ln(normalized median fluorescence intensity)); higher = stronger DNA binding
Procedure, shortened: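 GST-tagged P. falciparum DNA-binding domains, expressed in E. coli (about 25 μg on average), were applied for 1 h to an Agilent 4 × 180k array of primer-extended double-stranded 36-bp intergenic genomic probes plus negative controls. The binding buffer was 1× PBS with 1% milk, 0.2 mg/ml BSA, 0.5% salmon testes DNA and 0.03% Triton X-100. Bound protein was detected with Alexa488 anti-GST antibody and scanned at 488 nm. Binding intensity is the highest Masliner-normalised natural-log median intensity across replicate spots of either probe orientation.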

Sequence	gcPBM binding intensity (ln)
TCTTAAATATACAGTTGTACTAAACAAAAAAAAAAA [XGTACX_site2639]	8.5 ± 0.38
TATAAAAAATGATAAAGTACTTTATACACACAAATA [XGTACX_site8486]	8.89 ± 0.32
AAAATATACACACATATGTATATAATATTATATGTA [GTGCAC_negctrl_site496]	8.46 ± 0.29
ATTTATCTATAATATACACACATATAACAGACATAT [CACACA_site6469]	8.52 ± 0.33
TACACAAAATTTAAATGTACATTAAATATATGATGT [XGTACX_site2140]	8.55 ± 0.33
AAACATCATAAATATACACACATATATATATATATA [CACACA_site620]	10 ± 0.44
TGATAGCTAGCTATATGTACATATATATATATATAT [XGTACX_site393]	10.1 ± 0.34
CTTTCGGTTGGAGAGGTGCGCTTCTCCTTTATAATA	8.81 ± 0.22
CGAAACCATATGTACACACACATATATAAATATGTA [CACACA_site7082]	8.51 ± 0.28
AAAACGTATCACAAAAGTACAGATAGTTATAATATA [XGTACX_site185]	8.63 ± 0.31
TTTATATTTCTCTTTAGTACATATTATATTCTTTTA [XGTACX_site1618]	8.63 ± 0.43
AATGAAAATAAATTAACACACAATTTTAATATTGTT [CACACA_site1306]	8.08 ± 0.35
GTATACTTAACATTCACACATATATATATATATAAA [CACACA_site4596]	8.6 ± 0.42
ATATATATATATATATGTACTTATAATTCTTCAATT [XGTACX_site5627]	9.96 ± 0.52
AATTATTTACCTTCTTTGAAAGAACAAATGATACAA [CACACA_negctrl_site1315]	8.41 ± 0.5
ATATATCAACTCATATTATTTTCTTTTATTATTTAT [CACACA_negctrl_site276]	8.64 ± 0.68
TTTTTGAAATAATGAAACAGCAAAAAAACAAAAATA [CACACA_negctrl_site221]	8.9 ± 0.64
AAAAAAAACAGACACACACACAAATATATAAAAATA [CACACA_site1172]	8.67 ± 0.65
TATTAAAAGAAAATAACACACACAAAAAAAAAAAAA [CACACA_site8661]	8.34 ± 0.64
AAAATAAGCGTGAAACGTACATATTACATTATTATA [XGTACX_site8914]	8.35 ± 0.38
ATAATATATATATAGTGTACATTTGAATATATTTGA [XGTACX_site583]	8.44 ± 0.42
AAAATAAAAACAAAATCACACATTCCAGTTTTTTTT [CACACA_site5356]	8.3 ± 0.38
TTTTAAAATATCAACACACTCATTATTTTCTATATT [CACACA_site4740]	8.4 ± 0.42
TATATACATGTGAGAGTGCATATAGACATAAAAAAT	9.09 ± 0.26
TCATTCTATCTGTTCACACATACACAAAAAAAAAAA [CACACA_site5141]	8.64 ± 0.52
